From the supplement of paper PMC8728848
This is one part of the list.

Assays:
Experiment in all cases: glycan array binding signal (z-score within array); higher = stronger binding
Settings in all cases: glycan notation: IUPAC condensed, linker removed
[1] = target: Gal(b1-4)GlcNAc(b1-6)GalNAc
In short: (§1)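 Arrays were curated from the Consortium for Functional Glycomics database, 3228 in total, and kept only where the protein sequence was available. Binding is expressed as a within-array Z-score. This score was averaged across arrays of the same protein sequence at different concentrations or buffers and across linkers, and negative values can be read as non-binding.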

[2] = target: Gal(b1-4)GlcNAc(b1-6)[Gal(b1-3)]GalNAc
In short: as §1

[3] = target: Gal(b1-4)GlcNAc(b1-6)[Gal(b1-4)GlcNAc(b1-3)]GalNAc
In short: as §1

Gal(b1-4)GlcNAc6P = target: Gal(b1-4)GlcNAc6P
In short: as §1

Gal(b1-6)Gal = target: Gal(b1-6)Gal
In short: as §1

Gal3S(b1-3)GalNAc = target: Gal3S(b1-3)GalNAc
In short: as §1

Gal3S(b1-3)GlcNAc = target: Gal3S(b1-3)GlcNAc
In short: as §1

[4] = target: Gal3S(b1-3)[Fuc(a1-4)]GlcNAc
In short: as §1

Gal3S(b1-4)Glc = target: Gal3S(b1-4)Glc
In short: as §1

Gal3S(b1-4)Glc6S = target: Gal3S(b1-4)Glc6S
In short: as §1

Gal3S(b1-4)GlcNAc = target: Gal3S(b1-4)GlcNAc
In short: as §1

[5] = target: Gal3S(b1-4)[Fuc(a1-3)]Glc6S
In short: as §1

[6] = target: Gal3S(b1-4)[Fuc(a1-3)]GlcNAc
In short: as §1

[7] = target: Gal3S(b1-4)[Fuc(a1-3)]GlcNAc6S
In short: as §1

Gal3S4S(b1-4)GlcNAc = target: Gal3S4S(b1-4)GlcNAc
In short: as §1

Gal3S6S(b1-4)GlcNAc = target: Gal3S6S(b1-4)GlcNAc
In short: as §1

Gal3S6S(b1-4)GlcNAc6S = target: Gal3S6S(b1-4)GlcNAc6S
In short: as §1

Gal4S(b1-4)GlcNAc = target: Gal4S(b1-4)GlcNAc
In short: as §1

Gal4S6S(b1-4)GlcNAc = target: Gal4S6S(b1-4)GlcNAc
In short: as §1

Gal6P(b1-4)GlcNAc = target: Gal6P(b1-4)GlcNAc
In short: as §1

Gal6S(b1-3)GlcNAc = target: Gal6S(b1-3)GlcNAc
In short: as §1

Gal6S(b1-3)GlcNAc6S = target: Gal6S(b1-3)GlcNAc6S
In short: as §1

Gal6S(b1-4)Glc = target: Gal6S(b1-4)Glc
In short: as §1

B1: PX9961H-bth-557-24-557 (Bacteroides thetaiotaomicron) (protein)
chain: EETRTEVEKKNYMNNAEEAKDVLLGVYRTNTLDAMYGYYLSILFNLGTDISQVEGSGNENFRIIPTNSFPTTQSEVQQTWAALYTGIYRANDFLERISNKIGSYTTTDKKLATLYIAEARALRGMFYFELVRRFGNVVLMTSTQMSNQNPATYVQSAPEKVYEYIEDDLLYACDILPYATDDQYRESNDYRFSKGAALGLLTKVYATWAGYPVKDESKWEAAAKTARILVESGKHGLLKDYEQLWKNTCNGTWDPTESLIEISFYSPTVSGNSDPVGRIGKWNGVKTTAIAGVRGSCAANVKVVHTFVLDWREDVSDIRRDLSIANYQYTDTKKSLWVAGASDTDESAAEKDADPTKAQKNKQNYTPAKWDIQKYVTTNSFINNDKSNVNWYFLRYADVLLLYAEALNEWKHGPDAEAYNAINAVRRRGYGNPSNTSACDLPQGLDETSFREAVRKERSYELSFEGHRRQDLIRWGIYYKTVQATAKELGYWWEGTGSPNYSVATYTEEGKHELFPIPQRDMDLCIQFNQNPKW
[1]
  glycan array binding signal (z-score): 0.568
[2]
  glycan array binding signal (z-score): -0.337
[3]
  glycan array binding signal (z-score): -0.048
Gal(b1-4)GlcNAc6P
  glycan array binding signal (z-score): -0.303
Gal(b1-6)Gal
  glycan array binding signal (z-score): -0.383
Gal3S(b1-3)GalNAc
  glycan array binding signal (z-score): -0.407
Gal3S(b1-3)GlcNAc
  glycan array binding signal (z-score): -0.32
[4]
  glycan array binding signal (z-score): -0.395
Gal3S(b1-4)Glc
  glycan array binding signal (z-score): -0.446
Gal3S(b1-4)Glc6S
  glycan array binding signal (z-score): -0.305
Gal3S(b1-4)GlcNAc
  glycan array binding signal (z-score): -0.046
[5]
  glycan array binding signal (z-score): -0.287
[6]
  glycan array binding signal (z-score): 0.328
[7]
  glycan array binding signal (z-score): -0.135
Gal3S4S(b1-4)GlcNAc
  glycan array binding signal (z-score): -0.235
Gal3S6S(b1-4)GlcNAc
  glycan array binding signal (z-score): -0.266
Gal3S6S(b1-4)GlcNAc6S
  glycan array binding signal (z-score): -0.33
Gal4S(b1-4)GlcNAc
  glycan array binding signal (z-score): -0.296
Gal4S6S(b1-4)GlcNAc
  glycan array binding signal (z-score): -0.164
Gal6P(b1-4)GlcNAc
  glycan array binding signal (z-score): -0.334
Gal6S(b1-3)GlcNAc
  glycan array binding signal (z-score): 0.284
Gal6S(b1-3)GlcNAc6S
  glycan array binding signal (z-score): 0.54
Gal6S(b1-4)Glc
  glycan array binding signal (z-score): -0.037
